Assay results taken from article PMC4428065.
Results are given in words; binding and its absence hold for the method and conditions named.

Chains of the proteins cited; added tags and fusions are not shown.
UniProt Q39057: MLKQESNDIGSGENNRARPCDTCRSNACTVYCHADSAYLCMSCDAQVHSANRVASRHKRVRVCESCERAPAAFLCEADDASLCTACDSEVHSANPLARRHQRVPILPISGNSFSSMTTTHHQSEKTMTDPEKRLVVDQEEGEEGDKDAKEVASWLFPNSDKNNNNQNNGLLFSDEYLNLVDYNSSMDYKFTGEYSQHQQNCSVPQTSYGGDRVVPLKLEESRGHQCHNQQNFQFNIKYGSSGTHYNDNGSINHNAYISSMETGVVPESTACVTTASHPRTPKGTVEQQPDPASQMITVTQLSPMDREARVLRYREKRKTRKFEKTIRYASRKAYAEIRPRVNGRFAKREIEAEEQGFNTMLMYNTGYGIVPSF
UniProt Q9C9W9: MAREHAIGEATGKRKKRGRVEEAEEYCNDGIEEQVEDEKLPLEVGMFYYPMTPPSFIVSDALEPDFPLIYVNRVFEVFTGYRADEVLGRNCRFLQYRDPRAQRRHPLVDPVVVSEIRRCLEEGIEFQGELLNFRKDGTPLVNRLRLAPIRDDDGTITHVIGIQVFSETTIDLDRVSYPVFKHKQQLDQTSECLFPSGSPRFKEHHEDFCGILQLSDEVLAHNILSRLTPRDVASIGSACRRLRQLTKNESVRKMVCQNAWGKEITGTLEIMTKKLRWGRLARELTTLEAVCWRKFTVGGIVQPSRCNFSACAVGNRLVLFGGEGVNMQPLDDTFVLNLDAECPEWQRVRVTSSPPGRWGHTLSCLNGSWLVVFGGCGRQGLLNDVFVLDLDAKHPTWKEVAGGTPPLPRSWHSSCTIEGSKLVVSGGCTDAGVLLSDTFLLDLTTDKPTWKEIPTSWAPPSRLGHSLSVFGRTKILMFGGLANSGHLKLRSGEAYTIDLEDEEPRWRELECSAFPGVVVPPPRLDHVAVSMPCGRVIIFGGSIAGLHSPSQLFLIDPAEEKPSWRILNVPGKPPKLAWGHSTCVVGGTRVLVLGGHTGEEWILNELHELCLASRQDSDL
UniProt Q9S7Q7: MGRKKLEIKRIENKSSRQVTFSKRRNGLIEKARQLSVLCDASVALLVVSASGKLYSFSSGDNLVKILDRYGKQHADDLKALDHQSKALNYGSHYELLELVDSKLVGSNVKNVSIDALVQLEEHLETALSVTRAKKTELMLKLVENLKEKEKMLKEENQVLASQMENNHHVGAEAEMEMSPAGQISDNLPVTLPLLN
UniProt P14713: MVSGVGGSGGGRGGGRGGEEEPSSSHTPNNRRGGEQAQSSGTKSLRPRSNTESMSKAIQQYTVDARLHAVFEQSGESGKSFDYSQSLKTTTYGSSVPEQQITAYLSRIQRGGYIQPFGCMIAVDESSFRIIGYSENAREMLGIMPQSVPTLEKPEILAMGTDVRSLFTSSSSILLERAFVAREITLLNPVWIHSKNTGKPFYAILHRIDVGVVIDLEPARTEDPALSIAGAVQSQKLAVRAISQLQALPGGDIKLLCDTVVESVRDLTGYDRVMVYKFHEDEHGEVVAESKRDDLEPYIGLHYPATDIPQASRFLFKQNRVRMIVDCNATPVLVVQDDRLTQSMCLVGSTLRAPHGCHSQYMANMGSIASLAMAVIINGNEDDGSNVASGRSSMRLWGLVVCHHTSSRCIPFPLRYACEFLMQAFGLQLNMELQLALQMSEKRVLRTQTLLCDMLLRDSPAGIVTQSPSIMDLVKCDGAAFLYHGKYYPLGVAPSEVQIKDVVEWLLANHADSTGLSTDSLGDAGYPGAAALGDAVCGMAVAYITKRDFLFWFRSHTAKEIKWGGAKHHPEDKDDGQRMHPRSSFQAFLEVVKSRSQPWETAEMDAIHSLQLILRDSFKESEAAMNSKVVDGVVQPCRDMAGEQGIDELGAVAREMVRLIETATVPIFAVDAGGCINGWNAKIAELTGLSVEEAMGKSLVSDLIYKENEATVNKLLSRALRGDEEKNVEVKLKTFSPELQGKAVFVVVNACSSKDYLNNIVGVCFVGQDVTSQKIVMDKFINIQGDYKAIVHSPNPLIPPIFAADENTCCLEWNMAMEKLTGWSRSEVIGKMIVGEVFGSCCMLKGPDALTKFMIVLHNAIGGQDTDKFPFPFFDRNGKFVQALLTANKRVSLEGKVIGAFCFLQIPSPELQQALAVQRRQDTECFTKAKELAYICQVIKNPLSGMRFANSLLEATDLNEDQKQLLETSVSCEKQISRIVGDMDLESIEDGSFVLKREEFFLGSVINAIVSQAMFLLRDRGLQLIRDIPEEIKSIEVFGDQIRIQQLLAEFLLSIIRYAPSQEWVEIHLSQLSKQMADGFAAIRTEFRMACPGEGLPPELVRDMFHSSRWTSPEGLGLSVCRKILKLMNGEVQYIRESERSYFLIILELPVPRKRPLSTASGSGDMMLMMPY
UniProt Q9C6M5: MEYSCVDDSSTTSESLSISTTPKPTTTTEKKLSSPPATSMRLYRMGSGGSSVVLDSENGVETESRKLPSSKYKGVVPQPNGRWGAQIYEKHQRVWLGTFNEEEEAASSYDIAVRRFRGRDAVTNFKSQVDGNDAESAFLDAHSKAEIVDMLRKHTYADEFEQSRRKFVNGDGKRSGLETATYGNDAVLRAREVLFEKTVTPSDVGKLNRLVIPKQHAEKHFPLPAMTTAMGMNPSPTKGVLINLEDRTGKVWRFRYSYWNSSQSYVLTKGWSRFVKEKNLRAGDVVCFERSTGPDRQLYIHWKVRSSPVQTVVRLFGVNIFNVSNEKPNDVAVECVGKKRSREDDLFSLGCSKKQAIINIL

Molecular target: T1, DE-ETIOLATED1 (DET1), full-length, yeast two-hybrid bait (Arabidopsis thaliana) (UniProt P48732)
T1 sequence: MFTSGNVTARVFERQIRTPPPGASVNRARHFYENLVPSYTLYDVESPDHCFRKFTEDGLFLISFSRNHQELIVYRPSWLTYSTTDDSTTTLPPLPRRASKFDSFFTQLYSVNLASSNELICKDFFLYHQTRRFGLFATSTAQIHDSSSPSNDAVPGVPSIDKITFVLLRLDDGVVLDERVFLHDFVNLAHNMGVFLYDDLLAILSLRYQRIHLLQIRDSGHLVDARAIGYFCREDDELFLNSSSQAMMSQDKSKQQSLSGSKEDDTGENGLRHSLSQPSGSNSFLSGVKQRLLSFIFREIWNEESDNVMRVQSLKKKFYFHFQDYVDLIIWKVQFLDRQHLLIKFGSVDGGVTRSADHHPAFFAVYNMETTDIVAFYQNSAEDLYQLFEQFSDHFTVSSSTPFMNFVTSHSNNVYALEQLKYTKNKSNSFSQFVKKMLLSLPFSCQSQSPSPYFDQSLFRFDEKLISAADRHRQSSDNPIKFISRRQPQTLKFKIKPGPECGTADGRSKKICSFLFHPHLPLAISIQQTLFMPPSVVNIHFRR
Assay: two-hybrid; … GAL4 two-hybrid system 3 (pGBKT7 bait, pGADT7 prey) in S. cerevisiae AH109; growth on media lacking adenine, leucine, histidine and tryptophan; beta-galactosidase activity; full-length DET1 as bait in Figure 4b

For “CONSTANS (CO), yeast two-hybrid fusion (from UniProt Q39057 1-373)”, the binding was “no binding”.

With “FLAVIN-BINDING, KELCH REPEAT, F-BOX PROTEIN 1 (FKF1), yeast two-hybrid fusion (from UniProt Q9C9W9 1-619)” the binding was “no binding”.

With “FLOWERING LOCUS C (FLC), yeast two-hybrid fusion (from UniProt Q9S7Q7 1-196)” the binding was “no binding”.

In the case of “PHYB, yeast two-hybrid fusion (from UniProt P14713 1-1172)”, the binding was “no binding”.

For “SVP, yeast two-hybrid fusion (from UniProt Q9FVC1 1-240)”, the binding was “no binding”.

“TEM1, yeast two-hybrid fusion (from UniProt Q9C6M5 1-361)” was tested, and the binding was “no binding”.
